Columns and labels:
[1] = test system: rat articular chondrocytes (rArCs); test: WNT/β-catenin agonist or antagonist treatment of rArCs with or without TNF-α; format: cell-based
[2] = test system: rat articular chondrocytes (rArCs); test: WNT/β-catenin agonist or antagonist treatment of rArCs with or without IL-1β; format: cell-based
[3] = test system: rat articular chondrocytes (rArCs); test: Stimulation of rArCs with IL-1β or TNF-α (total DNA, MMP-13, PGE2); format: cell-based; settings: 10 ng/mL IL-1β or 5 and 10 ng/mL TNF-α, 24 hours
Protocol: FIGS. […] (FIG. 6A) Total DNA was measured from the cell monolayer and (FIG. 6B) MMP-13, and (FIG. 6C) PGE2 proteins were measured from the conditioned media. Groups not sharing a letter (D, C, B or A over bar) are statistically significant using an alpha=0.05.
(§1) Rat articular chondrocytes (rArCs) were isolated using a previously established protocol (see Scott, supra). Briefly, rArCs were isolated from femoral condyles and tibial plateaus from 100-125 g male Sprague Dawley rats. Cartilage was sterilely sliced from the articular surfaces using a surgical blade and placed in Dulbecco's modification of Eagle's medium with 1 g/L glucose, 50 U/mL penicillin and streptomycin (pen-strep) (DMEM). After removing DMEM, cartilage was incubated with 0.05% trypsin (20 mins, 37° C.), rinsed with DMEM (50 U/mL pen-strep, 20 mins, 37° C.), and then digested with sterile-filtered 0.03% collagenase type II solution (Worthington Biochemical, Lakewood, NJ) in Hank's balanced salt solution (16 hrs, 37° C.). Digestion was quenched with an equal volume of DMEM containing 10% fetal bovine serum (FBS) and 50 U/mL pen-strep, strained through a 40 μm strainer (Greiner Bio-one, North Carolina), spun down at 500×g for 10 mins and plated at a seeding density of 15,000 cells/cm^2. These cells are at passage 0. All experiments used cells at passage 1.
(§2) rArCs were plated at a seeding density of 15,000 cells/cm^2 and fed with DMEM supplemented with 10% FBS and 50 U/mL pen-strep. Media were changed 24 hours after plating and then every 48 hours. After treatments described below, conditioned media were collected, centrifuged at 1,000×g for 10 mins to remove cellular debris, aliquoted, and stored at −80° C. until assayed. Cell monolayers were rinsed twice with 1 mL of 1×PBS, lysed in 500 μL of 0.05% Triton X-100, and frozen for later DNA analysis. MMP-13 (ANASpec, Fremont, CA) and PGE2 (R&D Systems) were measured in the conditioned media by a microplate reader at ex/em 490 nm/520 nm, and 450 nm absorbance, respectively, in accordance with the manufacturer's directions. Data were normalized to the DNA content of the cell monolayer. Cell layers were thawed, and mechanically lysed by ultrasonication (40V, 10s/well) (VCX-120; Vibra-cell, Newtown, CT) and DNA was measured using QuantiFluor dsDNE system kit (Promega, Madson, WI) and quantified on a fluorescence plate reader at ex/em 504 nm/531 nm.
Data are from single experiments and are represented as mean±standard error (n=6 independent cultures per variable). Each experiment was repeated independently a minimum of two times to ensure the validity of the results. A one-way analysis of variance was performed followed by a two-tailed Tukey correction using an alpha equal to 0.05 as denoted by letters. […]

[4] = test system: rat articular chondrocytes (rArCs); test: miR mimic or inhibitor transfection of rArCs with or without TNF-α stimulation; format: cell-based; settings: 14.5 nM mimic 24 hours, then with or without 10 ng/mL TNF-α 24 hours
Protocol: FIGS. 7A-7F show assessment of miR-122 and miR-451 transfection or inhibition on TNF-α stimulated rat articular chondrocytes. rArCs were transfected at 60% confluence with miR-122, miR-451, miR-122-inhibitor (122-Inh), miR-451 inhibitor (451-Inh), or an empty vehicle (Lipo) for 24 hours followed by 24 hours with or without 10 ng/mL TNF-α stimulation. (FIG. 7A, 7D) Total DNA was measured from the cell monolayer and (FIG. 7B, 7E) MMP-13 and (FIG. 7C, 7F) PGE2 proteins were measured from the conditioned media. Groups not sharing a letter (A, B or C over bar) are statistically significant using an alpha=0.05.
as §1
as §2, with “nm. […]” for “nm.”

articular chondrocytes = test: miR-122 / miR-451 transfection of articular chondrocytes in presence and absence of IL-1β; format: cell-based, rat; settings: no IL-1β
Text: The following Examples with these microRNAs established their functions in articular chondrocytes in the presence and absence of the inflammatory cytokine IL-1β. Since IL-1β signaling is a major contributor of OA, a well-established model of creating an osteoarthritic phenotype in vitro is to stimulate cell cultures with this cytokine. This study first established that both these microRNAs were elevated in OA in the bilateral ACLT model.
The miR-451 miR (SEQ ID NO:10) was originally chosen as a control miR but it had surprising and very specific functions. […] A series of transfections and inhibition experiments with these microRNAs confirmed that these changes were due to the microRNAs themselves.

[5] = compound alone, increasing concentrations, no IL-1β

In the case of `Oc1nc(-c2ccc(C(F)(F)F)cc2)nc2c1CSCC2` [XAV, XAV-939], the MMP-13 production ([1]; 0.5 μM XAV plus 10 ng/mL TNF-α) is reported as “decreased the TNF-α-stimulated increase in MMP-13”, the MMP-13 production ([1]; 1 μM XAV plus 10 ng/mL TNF-α) is reported as “this effect was not present” and the MMP-13 production ([1]; compound alone, no TNF-α) is reported as “did not change MMP-13 production compared to control levels”. The PGE2 production ([1]; compound alone, no TNF-α) was “caused increases in both the 0.5 μM and 1 μM XAV groups”, the PGE2 production ([1]; compound plus 10 ng/mL TNF-α) was “acted synergistically” and the MMP-13 production [2, 5] was “no differences in MMP-13 or PGE2 production”. For the same compound, the PGE2 production [2, 5] was “no differences in MMP-13 or PGE2 production”, the MMP-13 production ([2]; compound plus 10 ng/mL IL-1β) was “synergist increases in both MMP-13 and PGE2” and the PGE2 production ([2]; compound plus 10 ng/mL IL-1β) was “synergist increases in both MMP-13 and PGE2”. For the same compound, the “total DNA” value ([2]; compound plus 10 ng/mL IL-1β) was “slight decrease in total DNA”.

For “IL-1β: inflammatory cytokine (Peprotech) used to stimulate chondrocyte cultures”, the “MMP-13 production (conditioned media)” value [3] was “An increase was seen in MMP-13 production” and the “PGE2 production (conditioned media)” value [3] was “significantly increased PGE2 production compared to control levels”.

For TNF-α, the “MMP-13 production (conditioned media)” value [3] was “significant increase in MMP-13 production compared to both IL-1β treated and control groups” and the “PGE2 production (conditioned media)” value [3] was “significantly increased PGE2 production compared to control levels”.

“miR-122: mirVana miRNA mimic rno-miR-122-5p; UGGAGUGUGACAAUGGUGUUUG (UGGAGUGUGACAAUGGUGUUUG; listed as RNA, chemistry not given here)” was tested, and the “MMP-13 production after mimic transfection” value [4] was “prevented the TNF-α-stimulated increase in MMP-13 production” and the “PGE2 production after mimic transfection” value [4] was “did decrease PGE2 production compared to the TNF-α stimulated control”.

With “miR-451: mirVana miRNA mimic rno-miR-451-5p; AAACCGUUACCAUUACUGAGUU (AAACCGUUACCAUUACUGAGUU; listed as RNA, chemistry not given here)” the “MMP-13 production after mimic transfection” value [4] was “did not change MMP-13 or PGE2 levels”, the “PGE2 production after mimic transfection” value [4] was “did not change MMP-13 or PGE2 levels” and the “MMP-13 and PGE2 production in the absence of IL-1β” value (articular chondrocytes) was “did not encourage these responses”.

Source: patent US20230407304A1, “USE OF MICRORNA INHIBITION TO PREVENT AND TREAT OSTEOARTHRITIS AND OTHER INFLAMMATORY DISEASES” (VIRGINIA COMMONWEALTH UNIVERSITY, priority 2020, published 2023)
